# Reference: PubChem BioAssay AID2060347 (Molecular Pharmacology Branch, DTP, NCI, 2025)
# For part of its entries the source gives two or more results. Only these are listed. An entry can have further records. The records of an entry are repeated measurements in other runs, samples, wells, individuals or studies. Dates in brackets are months of testing. Counts like (3×) stand for listed records that agree.
# Tested on: 817829-284-R-J1-PDC spheroids with HUVEC/MSC, viability
# Assay: Anticancer human tumor 817829-284-R-J1-PDC patient-derived colon adenocarcinoma cell line growth inhibition [TAK]
# Settings: for viability, T/C: stronger effect = lower value
# From the text: Combinatorial screen of targeted agents with TAK-243 and ipatasertib in multi-cell type tumor spheroids
# A high-throughput screen of multi-cell type tumor spheroids was designed to identify active combinations of targeted small molecules and TAK-243 or ipatasertib. Complex spheroids include a stromal component modeled by human endothelial cells (HUVEC) and fibroblasts modeled by human mesenchymal stem cells (MSCs). The concentration ranges selected for each drug and investigational agent were based upon clinically achievable concentrations if the clinical Cmax of the agent was known.
# Compounds. The drugs and investigational agents: TAK-243 (785004), ipatasertib (767898), everolimus (733504), selumetinib (741078), bortezomib (756655), trametinib (758246), ixazomib (758254), vemurafenib (761431), dabrafenib (764134), sapanisertib (764658), alpelisib (765974), and copanlisib (816437), were obtained from the National Cancer Institute (NCI) Developmental Therapeutics Program Chemical Repository. The FDA-approved anticancer drug set is available from the NCI Developmental Therapeutics Program. […] The stock solutions were prepared in dimethyl sulfoxide (DMSO, Sigma-Aldrich, St. Louis, MO, cat. D2650) at 800-fold the tested concentration and stored at -70 degrees C prior to their use. All drugs and investigational agents were tested over a range starting from a high concentration at or near the clinical Cmax and decreasing in half-log increments. If the clinical Cmax for an agent had not been determined, the highest concentration tested was 10 microM.
# NCI60 Cell Culture. NCI60 cell lines were obtained from the NCI Developmental Therapeutics Program Tumor Repository. For each lot of cells, the Repository performed Applied Biosystems AmpFLSTR Identifiler testing with PCR amplification to confirm consistency with the published Identifier STR profile for each cell line. Cells were kept in continuous culture for no more than 20 passages. The optimal seeding densities for each of the cell lines at each time point assessed were determined prior to performing the concentration response studies. Briefly, the NCI60 human tumor lines were grown as monolayers in RPMI 1640 medium supplemented with 10% FBS and 2 mmol/L L-glutamine.
# An additional 2 lines were from the NCI60 cell line panel including melanomas, MALME-3M and SK-MEL-2. Pooled donor human umbilical vein endothelial cells (HUVEC, Lonza, cat. CC-2519) and human mesenchymal stem cells (hMSC, Lonza, cat. PT-2501) were purchased from Lonza (Walkersville, MD). […]
# For the pre-screen, cell seeding densities were determined from a titration spanning the range from 5,000 to 313 cells per well. […]
structure (smiles),measurement,setting,value
CC(C)(C)c1nc(-c2cccc(NS(=O)(=O)c3c(F)cccc3F)c2F)c(-c2ccnc(N)n2)s1,IC50,compound alone,> 10 µM and 760 nM
CC(C)NCC(C(=O)N1CCN(c2ncnc3c2C(C)CC3O)CC1)c1ccc(Cl)cc1 (centres undefined),"viability, T/C",compound alone 0.3 µM,"94.2, 105 (2×), 96, 102, 89.7% [2020-02] and 92.1, 97.2, 90.6, 72.3% [2020-03]"
same,"viability, T/C",compound alone 0.949 µM,"65.7, 78.9, 76, 70, 76.9, 67.4% [2020-02] and 30.6, 30.3, 31.9, 29.1% [2020-03]"
CC(C)CC(NC(=O)C(Cc1ccccc1)NC(=O)c1cnccn1)B(O)O (centres undefined),"viability, T/C",compound alone 0.01 µM,1.01% and 86.8%
